We go through 89 molecules from publication PMC4336329 (PLoS ONE, 2015).

The whole screen tested about 310,000 compounds, of which about 2,200 (0.71%) showed an effect of 50% or more. The effect is printed as a negative number. The list shows a part of the results.

In this experiment the target is human ether-à-go-go-related gene (hERG) potassium channel (human, UniProt Q12809). Briefly: primary screen, population patch clamp on CHO cells stably expressing hERG.
Sequence of human ether-à-go-go-related gene (hERG) potassium channel (Q12809 whole entry, looked up): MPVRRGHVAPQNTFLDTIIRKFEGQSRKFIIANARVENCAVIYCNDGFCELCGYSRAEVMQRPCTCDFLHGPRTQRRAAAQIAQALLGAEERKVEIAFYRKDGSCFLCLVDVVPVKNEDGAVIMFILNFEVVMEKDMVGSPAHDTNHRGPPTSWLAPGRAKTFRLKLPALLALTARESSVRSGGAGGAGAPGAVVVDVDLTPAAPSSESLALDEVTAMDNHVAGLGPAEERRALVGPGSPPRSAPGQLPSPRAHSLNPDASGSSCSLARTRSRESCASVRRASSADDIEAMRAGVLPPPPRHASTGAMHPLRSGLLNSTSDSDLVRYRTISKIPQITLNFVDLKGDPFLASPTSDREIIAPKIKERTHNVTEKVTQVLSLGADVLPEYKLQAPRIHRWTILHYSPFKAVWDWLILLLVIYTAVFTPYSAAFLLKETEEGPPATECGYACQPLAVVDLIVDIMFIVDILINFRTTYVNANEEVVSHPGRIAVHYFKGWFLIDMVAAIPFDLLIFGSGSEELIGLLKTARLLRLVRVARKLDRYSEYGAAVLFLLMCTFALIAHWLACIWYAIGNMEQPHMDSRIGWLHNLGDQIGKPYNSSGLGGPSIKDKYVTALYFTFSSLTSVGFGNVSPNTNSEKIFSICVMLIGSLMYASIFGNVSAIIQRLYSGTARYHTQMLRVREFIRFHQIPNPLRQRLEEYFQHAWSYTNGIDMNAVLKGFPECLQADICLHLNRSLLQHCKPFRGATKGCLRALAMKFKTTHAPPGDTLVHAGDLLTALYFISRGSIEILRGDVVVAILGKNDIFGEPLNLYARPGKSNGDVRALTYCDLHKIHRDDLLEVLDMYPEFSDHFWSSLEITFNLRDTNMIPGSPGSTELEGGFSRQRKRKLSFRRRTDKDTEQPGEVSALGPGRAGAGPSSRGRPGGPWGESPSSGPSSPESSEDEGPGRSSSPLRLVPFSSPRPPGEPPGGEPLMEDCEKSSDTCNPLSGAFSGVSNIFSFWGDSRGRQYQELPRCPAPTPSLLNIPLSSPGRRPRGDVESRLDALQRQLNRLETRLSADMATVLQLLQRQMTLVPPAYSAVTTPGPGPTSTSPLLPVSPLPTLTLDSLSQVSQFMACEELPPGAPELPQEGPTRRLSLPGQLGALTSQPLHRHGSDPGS
Consider `Clc1ccccc1N=C1NN=C(c2cccs2)CS1`, for which the “hERG current change (%, negative = inhibition) at 1uM” value turned out to be 1.46%.
With `O=C(c1ccc(N2CCCC2)c([N+](=O)[O-])c1)N1CCN(CCO)CC1` the figure was 7.71%; with `NC(=O)c1nsc(C(=O)N(c2ccccc2)C(C(=O)NC2CCCC2)c2cccs2)c1N` (centres unmarked), 11.3%.
The value for `Cc1noc(C)c1Cn1nc(C(=O)O)c2ccccc2c1=O` was 3.2%; that for `O=C(O)/C=C/C(=O)NC1CC1` was 21.4%; that for `Cc1nc(CCNC(=O)Cc2ccc(Cl)cc2)cs1` was 13.9%.
The value for `Cc1ccc(S(=O)(=O)CCC(=O)OCc2ccc(Cl)cc2)cc1` was 4.04%; that for `CCC1C(=O)N=C(SCC(=O)Nc2ccc(S(N)(=O)=O)cc2)NC1=O` (centres unmarked) was 3.61%; that for `Cc1ccc(S(=O)(=O)Cn2nnnc2C(C(C)C)N2CCC(O)CC2)cc1` (centres unmarked) was 14.5%.
As for `C=C(C)C(=O)Nc1cccc(C2=NOC3(C2)C[C@H](C(N)=O)N(C(=O)COc2ccc(Cl)cc2)C3)c1` (some centres unmarked), the “hERG current change (%, negative = inhibition) at 1uM” value is 4.75%.
With `C=CCNC(=S)N/N=C/c1ccc(N(CC)Cc2ccccc2)cc1` the figure was 18.4%; with `COc1ccc(NC(=O)CSc2nc3ccccc3c(=O)n2CCCN2CCOCC2)c(OC)c1`, 1.25%.
With `CCn1c(SCC(=O)Nc2cc(C)on2)nnc1-c1ccc(C)cc1` the figure was 17.6%; with `COc1ccccc1NC(=O)CC1Nc2ccccc2NC1=O` (centres unmarked), 15.8%.
In the case of `Cc1cc(C)c(NC(=O)c2c[nH]c(=S)n2-c2ccc(F)cc2)c(C)c1`, the “hERG current change (%, negative = inhibition) at 1uM” value is given as 6.6%.
With `Oc1ccc(C[C@H]2CNCCN2CCC23CC4CC(CC(C4)C2)C3)cc1` the figure was 5.91%; with `CCNC(=S)Nc1ccc(Cl)cc1Cl`, -4.43%; with `O=Cc1ccc(-n2cc(C=O)c3ccccc32)cc1`, 11.3%.
With `CCNc1nc(NCC)n2c(SCC(=O)Nc3ccccc3F)nnc2n1` the figure was -6.99%.
The value for `CCOC(=O)c1c(C)[nH]c(C(=O)OCC(=O)c2ccc(OC)cc2OC)c1C` was 11.7%; that for `COc1cccc(N(CC(=O)NC2CCCCC2)C(=O)c2snc(C(N)=O)c2N)c1` was 5.91%; that for `CCc1ccc(-c2cc(C)no2)cc1S(=O)(=O)N1CCN(c2ccc(OC)cc2)CC1` was 11.4%.
For the molecule `Cn1nc(C(F)(F)F)c(C#N)c1N1CCN(c2cccc(C(F)(F)F)c2)CC1`, the “hERG current change (%, negative = inhibition) at 1uM” value is given as 10.9%.
With `CCCOc1ccc([C@@H]2C3CN(C(=O)OCC)CC=C3C(C#N)=C(N)C2(C#N)C#N)cc1OC` (some centres unmarked), the “hERG current change (%, negative = inhibition) at 1uM” value came out at 15.1%.
With `CCC(CC)C(=O)Nc1cc(C(=O)NCCc2ccccc2)ccc1Cl` the figure was -1.1%; with `CN(CC(=O)Nc1ccc(F)cc1)C(=O)c1ccc(-c2ccc(Cl)cc2)o1`, -9.75%; with `C/C(=C\C=C\c1ccccc1)C(=O)c1c(C)cc(C)[nH]c1=O`, 14.1%.
Consider `CN(C)S(=O)(=O)c1ccc(C(=O)NCc2nnc(SCC(=O)N3CCCC3)o2)cc1`, for which the “hERG current change (%, negative = inhibition) at 1uM” value stood at 16.3%.
With `O=[n+]1cc(-c2cccc3ccccc23)n([O-])c2c1CCC2` the figure was 2.37%; with `Cc1ccc(SC(C)C(=O)N2CCCC2)cc1` (centres unmarked), 11.2%; with `COc1nc(-c2ccc(C)cc2)ccc1-c1noc(-c2ccco2)n1`, 12.8%.
With `CC/C(C)=C1\SC(N2CCOCC2)=NC1=O` the figure was 7.59%; with `COc1ccc(S(=O)(=O)NC2CCCCC2)cc1-n1cnnn1`, 8.83%; with `COc1ccc(C(=O)Nn2c(CCC(=O)O)ccc2-c2ccc(C)cc2)cc1OC`, 13.7%.
The value for `COc1ccc(-c2csc(NC(=O)C3CCN(c4ncnc5sc(C)c(C)c45)CC3)n2)cc1OC` was 16%; that for `CCCN(CCC)CCCOC(=O)c1ccc(Cl)cc1Cl.Cl` was -56.8%.
Take `O=C(Nc1ccccc1)c1ccc(NCC2CCCO2)c([N+](=O)[O-])c1` (centres unmarked): the “hERG current change (%, negative = inhibition) at 1uM” value is given as -1.62%.
The value for `COc1cccc2sc(N3CCN(C(=O)c4cccs4)CC3)nc12` was 1.6%.
The value for `COc1ccc(Cl)cc1NC(=S)NNC(=O)c1cccs1` was 16.4%; that for `CC1CCN(C(=O)Cn2cc(C(=O)c3ccco3)c3ccccc32)CC1` was 14.3%.
The value for `CCOc1cc(NC(=S)NCC2CCCO2)c(OCC)cc1NC(=O)c1ccc(C)cc1` (centres unmarked) was 0.412%; that for `COc1ccc(OC)c(COC(=O)c2cc([N+](=O)[O-])ccc2N2CCOCC2)c1` was -0.0939%.
On to `Cc1cccc(-n2c(SCC(N)=O)nnc2-c2ccccn2)c1C`, for which the “hERG current change (%, negative = inhibition) at 1uM” value was 8.65%.
With `CCCc1nc2n[nH]c(N)c2c2c1CCC2` the figure was -5.76%; with `Clc1ccc(SCCCN2CCCCC2)cc1.O=C(O)C(=O)O`, -24.5%.
The value for `Cc1nn(C)cc1CN1CCCC(C(=O)c2ccc(-c3ccccc3)c(F)c2)C1` (centres unmarked) was 11.2%.
The value for `CCOc1ccc(N2CSC(=S)N(c3ccc(OCC)cc3)C2)cc1` was 11.6%; that for `CC#CCCc1nc2ccccc2c(=O)n1N` was 13.8%; that for `NC(=O)c1ccccc1N/C=C/C(=O)c1ccc(Cl)cc1` was 10.3%.
In the case of `CC1CC(C)CN(CC(=O)NNC(=O)COc2ccc(Cl)cc2)C1` (centres unmarked), the “hERG current change (%, negative = inhibition) at 1uM” value was -3.97%.
With `CN1CCNC(=O)C1CC(=O)NCCc1ccccc1F` (centres unmarked) the figure was 12.7%; with `CC(C(=O)Nc1ccccc1C(=O)N1CCCC1)n1nnc2ccccc21` (centres unmarked), -0.136%; with `CCOc1ccc(NC(=O)CC2C(=O)N(C)C(=S)N2CCCc2ccccc2)cc1` (centres unmarked), 10.2%.
With `CNc1cccccc1=S` the figure was 8.22%; with `CCc1nc2cc([N+](=O)[O-])c([N+](=O)[O-])cc2[nH]1`, 10.7%; with `O=C(CC1C(=O)NCCN1CC(c1ccccc1)c1ccccc1)NCC1CCOCC1` (centres unmarked), 11.5%.
The value for `COc1ccc(OCCC(=O)Nc2ccc(S(N)(=O)=O)cc2)cc1` was 12.8%; that for `Cc1ccc(NCc2ccccc2O)cc1C` was 10.2%; that for `CCOC(=O)N1CCN(C(=O)Cc2ccc(Cl)cc2)CC1` was 4.03%.
Turning to `COC(=O)C(NC(=O)Nc1ccccc1OC)C(C)C` (centres unmarked), the “hERG current change (%, negative = inhibition) at 1uM” value was 17.9%.
With `N#CCC(=O)N/N=C/c1ccc(OCc2ccccc2)cc1` the figure was 10.7%.
As for `O=S(=O)(NCC1CCCO1)c1ccc(S(=O)(=O)N(Cc2ccc(F)cc2)Cc2ccccn2)cc1` (centres unmarked), the “hERG current change (%, negative = inhibition) at 1uM” value amounted to 6.17%.
The value for `COc1ccc(CNC(=O)CN(Cc2ccccc2F)C(=O)c2csnn2)cc1` was -2.99%.
Turning to `CC12CCC(=O)N1C(C(=O)NCCN1C(=O)S/C(=C\c3ccc(OC(F)F)cc3)C1=O)CS2` (centres unmarked), the “hERG current change (%, negative = inhibition) at 1uM” value is on record as 17%.
For `COC(=O)CN1C(=S)N(C)C(=O)C1CC(=O)Nc1ccccc1` (centres unmarked), the “hERG current change (%, negative = inhibition) at 1uM” value was determined as 2.66%.
The value for `O=C1CCCN1c1ccc(S(=O)(=O)NCCc2ccc(Cl)cc2)cc1` was -4.53%.
With `Nc1ccncc1` the figure was 6.11%.
The value for `Oc1ccc(C=Nc2ccccc2-c2nc3ccccc3[nH]2)c(O)c1` was 10.5%; that for `Cc1cc(C)nc(N/N=C/c2ccco2)n1` was 11.9%.
Regarding `O=C(Nc1ccc(F)cc1)C1CCC(CNc2c(N3CCCCC3)c(=O)c2=O)CC1` (centres unmarked), the “hERG current change (%, negative = inhibition) at 1uM” value worked out at 11%.
The value for `CCOCCSc1nc2c(c(=O)[nH]c(=O)n2C)n1CCCc1ccccc1` was -2.1%; that for `CCOc1cc(N2CCOCC2)c(OCC)cc1NC(=O)COC(=O)/C=C/c1ccc(OC(F)F)cc1` was 9.44%.
With `CCOC(=O)c1ccc(CN(Cc2ccc(C)cc2)S(=O)(=O)c2cccc([N+](=O)[O-])c2)cc1` the figure was 10.6%; with `Cc1cccc2c1NC(=O)C21N2CCCC2C(C(=O)c2ccc3ccccc3c2)C12C(=O)Nc1ccccc12` (centres unmarked), 8.96%.
With `Cc1ccc(NC(=O)C2CC(=O)N(c3ccc4c5c(cccc35)CC4)C2)cc1` (centres unmarked) the figure was 10.8%; with `COc1cc([N+](=O)[O-])ccc1NC(=O)CC(C)C`, 1.18%; with `Cc1ccccc1OCCn1cc(C=O)c2ccccc21`, 10.1%.
`COc1ccc(C(NC(=O)CC(C)C)c2c(O)ccc3ccccc23)cc1` (centres unmarked): the “hERG current change (%, negative = inhibition) at 1uM” value was 2.37%.
For `CCOC(=O)c1oc2ccccc2c1COC(=O)CNC(=O)c1ccco1`, the “hERG current change (%, negative = inhibition) at 1uM” value is reported as -8.78%.
The value for `NS(=O)(=O)c1ccc(NC(=O)CSc2ccccn2)cc1` was 19.4%; that for `O=C1NC(=O)/C(=C/c2ccc(-c3cc(C(=O)O)ccc3Cl)o2)S1` was 14.6%.
As to `O=C(NCC1CCCO1)c1ccc(NC(=O)C2CCCCC2C(=O)O)cc1` (centres unmarked), the “hERG current change (%, negative = inhibition) at 1uM” value stood at 10%.
The value for `CSc1nc(O)c(C(c2ccc(OC(C)C)cc2)c2c(O)nc(SC)[nH]c2=O)c(=O)[nH]1` was 15%.
With `CCCn1c(-c2ccc(OC)cc2)nc2ccccc21` the figure was 1.14%; with `COc1ccccc1NC(=O)CN(Cc1ccco1)C(=O)c1cncc(Br)c1`, -10%.
With `CCCCSc1nc(N)c(NC(=O)c2ccco2)c(=O)[nH]1` the figure was 16.2%; with `COC(=O)/C(C#N)=C/c1c(N2CCN(c3cccc(Cl)c3)CC2)nc2c(C)cccn2c1=O`, 10.6%.
Turning to `Cc1ccc(N2CC(C(=O)Nc3nnc(SCCC4OCCO4)s3)CC2=O)cc1C` (centres unmarked), the “hERG current change (%, negative = inhibition) at 1uM” value is 12.3%.
The value for `Cc1cn(C2OC(CC(=O)Oc3ccccc3)C(O)C2O)c(=O)[nH]c1=O` (centres unmarked) was 13.2%.
